The record followed here is PubChem BioAssay AID488969 (Vanderbilt High Throughput Screening Facility, 2010).

Structures are written as SMILES. Whole data set: some 110,000 compounds, median “z-score” near -0.1, cut for the highest 2% near 2. The list shows a part of the results.

The assay has as its target Metabotropic glutamate receptor 8 (Rattus norvegicus) (UniProt P70579). The assay is described as follows: rat mGluR8 modulators via GIRK flux, primary screen, cell-based, thallium flux, HTS (AID 488969). As to conditions: HEK293 rat mGluR8, GIRK (G protein-gated inwardly rectifying potassium channel) thallium flux, FluoZin2; at 10 µM; stronger effect = higher value; submaximal glutamate (EC20) added with thallium.
Sequence of UniProt P70579 (P70579 whole entry, looked up): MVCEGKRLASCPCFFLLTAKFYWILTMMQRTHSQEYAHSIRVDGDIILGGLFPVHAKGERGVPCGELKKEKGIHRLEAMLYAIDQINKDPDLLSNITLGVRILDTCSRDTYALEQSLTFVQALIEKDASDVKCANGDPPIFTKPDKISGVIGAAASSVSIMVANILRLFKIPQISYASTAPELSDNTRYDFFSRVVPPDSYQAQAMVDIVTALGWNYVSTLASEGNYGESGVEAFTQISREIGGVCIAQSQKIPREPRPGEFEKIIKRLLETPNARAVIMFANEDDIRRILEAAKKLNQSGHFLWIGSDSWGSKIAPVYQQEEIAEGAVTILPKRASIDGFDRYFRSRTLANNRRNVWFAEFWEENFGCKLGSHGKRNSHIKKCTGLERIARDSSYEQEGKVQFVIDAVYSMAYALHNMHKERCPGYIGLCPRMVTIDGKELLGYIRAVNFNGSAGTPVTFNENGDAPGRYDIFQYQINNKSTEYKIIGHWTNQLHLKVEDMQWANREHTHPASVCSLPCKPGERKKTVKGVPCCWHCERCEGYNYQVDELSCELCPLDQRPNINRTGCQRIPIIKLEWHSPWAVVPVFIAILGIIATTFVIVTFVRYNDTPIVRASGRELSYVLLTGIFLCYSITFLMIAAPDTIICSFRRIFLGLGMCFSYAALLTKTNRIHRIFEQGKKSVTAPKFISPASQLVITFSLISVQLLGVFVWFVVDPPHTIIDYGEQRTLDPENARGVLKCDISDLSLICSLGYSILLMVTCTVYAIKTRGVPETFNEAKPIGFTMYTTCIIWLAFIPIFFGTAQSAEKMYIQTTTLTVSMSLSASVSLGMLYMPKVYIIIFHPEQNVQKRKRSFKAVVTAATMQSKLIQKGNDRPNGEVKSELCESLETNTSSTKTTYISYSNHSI
The compound `CC1(C)NC(=O)N(CC(O)COc2ccc(-c3ccccc3)cc2)C1=O` (stereo not drawn) returned a z-score of -0.0166.

The compound `COc1ccc(S(=O)(=O)N2CCCC2C(=O)Nc2nnc(-c3cccnc3)s2)cc1` (stereo not drawn) came in with a z-score of -0.289.

In turn, `Cc1cnc(NC(=O)c2ccco2)s1` gave a z-score of 0.4.

`CCOC(=O)CC(NS(=O)(=O)c1ccc(OC)c(OC)c1)c1cccc([N+](=O)[O-])c1` (stereo not drawn) yielded a z-score of -0.468.

For `CCOc1ccc(Cc2nn[nH]n2)cc1`, the z-score was -0.0609.

As to `Clc1ccc(Br)cc1-c1nc(-c2ccncc2)no1`, the z-score is -0.152.

On to `Cc1ccc(NC(=O)CC(NCCN2CCOCC2)C(=O)O)cc1Cl` (stereo not drawn), for which the z-score is -0.0164.

In turn, `Cc1ccc(OCC(=O)NNC(=O)c2cc(C)[nH]n2)cc1` gave a z-score of -0.355.

The compound `COC(CN(C(=O)CCl)C(C(=O)NC1CCCC(C)C1C)c1ccc(C)cc1)OC` (stereo not drawn) displayed a z-score of -0.383.

`O=C(NC12CC3CC(CC(C3)C1)C2)N1CCN(c2nc(-c3ccccc3)cs2)CC1`: the z-score is -0.367.

`Nc1cc(-c2ccccc2)nn1S(=O)(=O)c1ccc(Br)cc1` yielded a z-score of 0.0243.

Consider `CCOc1ccc2oc(-c3ccccc3)c(C(=O)N(C)C)c2c1`, for which the z-score is -0.33.

Turning to `COc1ccccc1NS(=O)(=O)c1cc(NC(=O)/C=C/c2cccs2)ccc1N1CCOCC1`, the z-score was -0.133.

`CC(=O)c1cc(F)c(N2CCN(C(=O)Cc3ccccc3)CC2)cc1C` returned a z-score of 0.359.

`CN(C)CCCN1C(=O)C(=O)/C(=C(/O)c2ccncc2)C1c1cccc(Br)c1` (stereo not drawn) displayed a z-score of -0.318.

Regarding `CN(CC1COc2ccccc2O1)C(=S)Nc1ccccc1F` (stereo not drawn), the z-score was -0.243.

Turning to `CC1(C)NC(=O)N(CC(=O)Nc2nc(-c3ccc(F)cc3)cs2)C1=O`, the z-score is -0.157.

On to `CC(C)(C)C(=O)N(Cc1nc2ccccc2c(=O)[nH]1)Cc1cccs1`, for which the z-score was 0.197.

On to `Cc1csc(C2=C(O)CN(CCc3ccccc3)C2=N)n1`, for which the z-score was determined as 0.578.

With `NC(=O)c1ccccc1OCC(=O)NS(=O)(=O)c1ccccc1`, the z-score is -0.137.

With `Cc1ccc(-n2c(-c3ccco3)nc3c(cnn3-c3ccccc3C)c2=O)cc1`, the z-score is -0.218.

For `COc1ccc2nc(SCC(N)=O)[nH]c2c1`, the z-score was found to be 0.59.

In turn, `Cc1ccc2nc(NCCO)nc(-c3ccccc3)c2c1` displayed a z-score of 0.968.

On to `O=C(CCCN1C(=O)CCC1=O)Nc1ccc(Cl)c(C(F)(F)F)c1`, for which the z-score was -0.0185.

`O=C1CC(C(=O)Nc2ccccc2)N=C(N2CCCCC2)N1` (stereo not drawn) gave a z-score of 0.00412.

`COc1cccc(CNc2ccc(S(N)(=O)=O)cc2)c1OCc1ccccc1F`: the z-score was -0.468.

Turning to `CC1(C)CC(=O)C2=C(C1)OC(c1ccncc1)C(C#N)=C2N` (stereo not drawn), the z-score came out at 0.377.

Consider `Cn1c2ccccc2c(=O)c2c(=O)n(C3CCCCC3)c(-c3cccs3)nc21`, for which the z-score is -0.394.

In turn, `Nc1n[nH]c(-c2ccccc2)c1-c1ccccc1` came in with a z-score of -0.118.

`COC1(OC)N=C(NC(=O)Nc2ccccc2)C2(C#N)C(c3ccccc3)C12C#N` (stereo not drawn) displayed a z-score of -0.0401.

`O=C(c1cc2ccccn2n1)N1CCN(c2cccc(C(F)(F)F)c2)CC1` showed a z-score of 0.101.

`CCC(=O)Nc1ccc(NC(=S)Nc2ccccc2)cc1` yielded a z-score of -0.362.

As for `N=c1c2c3c(sc2ncn1Cc1ccccc1)CCCC3`, the z-score worked out at 0.187.

For `Cc1cc(=O)oc2cc(OCC3CC(c4ccc(Br)cc4)=NO3)ccc12` (stereo not drawn), the z-score is -0.809.

`Cn1c(=O)oc2cc(S(=O)(=O)N3CCN(C(=O)c4ccco4)CC3)ccc21` had a z-score of 0.764.

Take `Nc1cc(-c2ccc(Br)cc2)nn1S(=O)(=O)c1ccccc1`: the z-score came out at 0.484.

Regarding `Cc1nc2ccc(S(=O)(=O)N(C)CC(=O)N3CCc4ccccc43)cc2s1`, the z-score is -0.14.

The compound `CCOC(=O)c1c(CN2CCOCC2)n(-c2ccccc2)c2cc(Br)c(O)cc12` gave a z-score of -0.822.

As for `COCC(=O)N(Cc1ccco1)c1nnc(C2CCOC2)s1` (stereo not drawn), the z-score was determined as 0.036.

Compound `CCC(C)[C@H](NC(=O)Nc1cccc(Cl)c1)C(=O)O` (stereo partly drawn) came in with a z-score of -0.129.

`CN(C)C(=O)CN(C)S(=O)(=O)c1ccc(Cl)cc1` yielded a z-score of 0.0253.

As for `CC(C)(C)NC(=O)COc1ccc(CNCc2cccs2)cc1`, the z-score is -0.216.

`COc1ccccc1Oc1coc2c(CN(C)C)c(O)ccc2c1=O` gave a z-score of 0.181.

Compound `COCCn1c(=O)[nH]c2cc(C(=O)NCCc3ccc(OC)c(OC)c3)ccc2c1=O` had a z-score of 0.373.

`Cc1ccccc1-n1c(=O)cc(N2CCN(C(=O)c3ccco3)CC2)[nH]c1=O` gave a z-score of -0.201.

`Cc1cc(C(=O)CSc2nnc(-c3ccccc3F)o2)c(C)n1Cc1cccs1` came in with a z-score of 0.122.

As to `CCCc1nnc(SCC(=O)N2CCCCC2C)n1CCCOC` (stereo not drawn), the z-score was -0.163.

For `O=S(=O)(NC1CCCCCC1)c1ccc(Br)s1`, the z-score is -0.403.

With `CC1=NN(c2ccc(C)cc2C)C(=O)C1C(c1ccccc1)C1C(=O)N(c2ccc(C)cc2C)N=C1C` (stereo not drawn), the z-score was -0.874.

In turn, `CCN(CC)S(=O)(=O)c1cccc(-c2nnc(C(=O)c3ccc(C(F)(F)F)cc3)o2)c1` had a z-score of -0.091.

In the case of `CC(NC(=O)c1cc2c(=O)n(C)c3ccccc3c2n1C)c1ccc2c(c1)OCCO2` (stereo not drawn), the z-score is -0.437.

`Cn1c(=O)[nH]c(=O)c2c1nc(Br)n2CCSc1ncccn1`: the z-score is 0.549.

For `CCOC(=O)c1ccccc1NC(=O)COc1cc(=O)n(CC)c2ccccc12`, the z-score is -0.743.

Take `Cc1cc(C(=O)CSc2n[nH]c(N)n2)c(C)n1-c1ccc(F)cc1`: the z-score was -0.628.

`O=C(c1nn(Cc2ccccc2)c(=O)c2ccccc12)N1CCN(C/C=C/c2ccccc2)CC1` had a z-score of -0.529.

The compound `CCCC1=Nc2cc(C(=O)NCCCOCC)ccc2Sc2ccccc21` yielded a z-score of -0.599.

For the compound `CCOC(=O)c1c(N)n(CC(C)NC(=O)C2CC2)c2nc3ccccc3nc12` (stereo not drawn), the z-score was found to be 0.154.

Regarding `C=CCc1ccc(OCCCCCN2CCOCC2)c(OC)c1`, the z-score was 0.566.

With `C=CCNc1nc(SCC=C)nc2ccsc12`, the z-score is -0.905.

In turn, `CCC(CC)c1nnc(NC(=O)CN2C(=O)C3C4C=CC(C4)C3C2=O)s1` (stereo not drawn) displayed a z-score of 0.0107.

The compound `Cc1ccc(-c2csc(NC(=O)c3ccc4c(=O)n5c(nc4c3)CCCCC5)n2)cc1` registered a z-score of -0.351.

With `CC(CCc1ccccc1)NC(=O)COc1ccc(S(=O)(=O)N2CCOCC2)cc1[N+](=O)[O-]` (stereo not drawn), the z-score was -0.074.

`COc1ccc(Nc2ccc(S(=O)(=O)N3CCCCC3)cc2[N+](=O)[O-])cc1OC` showed a z-score of 2.43.

For the compound `Cc1cccc(C)c1N1C(=O)C2ON(c3ccccc3)C(c3ccncc3)C2C1=O` (stereo not drawn), the z-score is -0.179.

For `O=C(/C=C/c1cccc([N+](=O)[O-])c1)N1CCN(c2ccc(F)cc2)CC1`, the z-score was -0.449.

Take `O=C(Nc1ccccc1)C1Cc2ccccc2CN1C(=O)c1ccco1` (stereo not drawn): the z-score was -0.0831.

Compound `CCOC(=O)C1=C(C)Nc2sc(C(=O)c3ccc(C)cc3)c(N)c2C1c1ccc(C(=O)OC)cc1` (stereo not drawn) returned a z-score of -0.284.

Compound `CC1CCCC(NC(=O)COC(=O)CSc2ccc3ccccc3c2)C1C` (stereo not drawn) had a z-score of -0.0113.
